# Source: PubChem BioAssay AID651820 (National Center for Advancing Translational Sciences (NCATS), 2012)
# About 12,000 (3.5%) of roughly 340,000 compounds were called active. Inconclusive results, whose numbers are uncertain, are shown with a selection of clear calls. Calls follow the shape of the dose curve; as a rule, active = well fitted inhibition curve with a large enough effect; inconclusive = small, poorly fitted or top-dose-only effect, or another doubt; inactive = no such curve, though single readings can be large or run the other way. Potencies of inconclusive entries are left out as doubtful fits.
# Experiment: qHTS Assay for Inhibitors of Hepatitis C Virus (HCV)
# Conditions: Huh7.5.1 HCVcc-Cre (HCVcc is cell-culture hepatitis C virus) infection, luciferase reporter, 44 h; series mostly up to 41.8 µM
# Summary of the method: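 Whole-lifecycle infectious HCVcc-Cre system; cells 1,000/well, compound then virus (~0.5 moi) added 4 h after plating, 44 h culture. Luciferase read 15 sec following 15 min substrate incubation, room temp.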
# Potency is read from the fitted curve at half-maximal effect; tags tell the direction and shape of the fitted curve.
row,Structure (SMILES),Potency
1,O=[N+]([O-])c1cc2c(cc1/C=N/Nc1nc(Nc3ccccc3)nc(N3CCCCC3)n1)OCO2,"inconclusive [inhibitor, partial curve, poor fit]"
2,CCOC(=O)c1c(NC(=O)C2CCCN2S(=O)(=O)c2cccc3nsnc23)sc(C)c1C (centres undefined),"inconclusive [inhibitor, partial curve]"
3,O=C(NCc1ccc(F)cc1)c1cc2c(cc1Cl)N1CCCCCC1=NS2(=O)=O,inactive
4,S=C(NCCc1ccccc1)N1CCN(C(c2ccccc2)c2ccccc2)CC1,"inconclusive [inhibitor, partial curve]"
5,Cc1ccc(C)c(OCc2cc(C(=O)N3CCC(N4CCCC(O)C4)CC3)no2)c1 (centres undefined),"inconclusive [inhibitor, single point]"
6,O=C1C=C(c2ccccc2Oc2ccccc2)C[C@@H](c2ccc3c(c2)OCO3)C1,"inconclusive [inhibitor, partial curve]"
7,CC1OC(Nc2ccc(N=Nc3ccccc3)cc2)C(O)C(O)C1O (centres undefined),inactive
8,Cc1ccc2nc(SCC(=O)NCc3ccco3)[nH]c2c1,"inconclusive [inhibitor, full curve]"
9,Cc1c(C(=O)N2CCN(S(=O)(=O)c3ccc(F)cc3)CC2)oc2ccccc12,inactive
10,COCCNc1c2c(c(C#N)c3nc4ccccc4n13)CCCC2,"inconclusive [inhibitor, single point]"
11,COc1ccccc1CNC(=O)[C@H](C)NC(=O)C1CCN(C(=O)[C@H](CCSC)NC(=O)OC(C)(C)C)CC1,inactive
12,COP(=O)(OC)C(Nc1ccc(C)cc1)c1ccc(Br)cc1 (centres undefined),inactive
13,CCCN(CCO)Cc1cccc(Br)c1,"inconclusive [inhibitor, single point]"
14,COC(=O)Cc1ccc2sc(-c3ccccc3)nc2c1,"inconclusive [inhibitor, single point]"
15,O=C(NCC(=O)N1CCOCC1)c1ccc(Cl)cc1,inactive
16,COc1ccccc1CN1C[C@@H]2C[C@@H](c3ccc(C)cc3)N3CCC[C@@]23C1=O,"inconclusive [inhibitor, single point]"
17,COc1cc(C(=O)Nc2ccc(N3CCN(C(=O)c4ccc(C)cc4)CC3)cc2)cc(OC)c1OC,"inconclusive [inhibitor, partial curve]"
18,O=C(NCc1ccccc1)C(c1ccc(F)cc1)N(Cc1cccs1)C(=O)c1cnccn1 (centres undefined),inactive
19,CCC(=O)N1CCc2cc(S(=O)(=O)N3CCN(c4cc(C)ccc4C)CC3)ccc21,inactive
20,Cn1nc(CC(=O)NCc2ccc(F)cc2)c2ccccc2c1=O,active: 11.2 µM
21,O=C(CN1CCN(Cc2ccc(Cl)cc2)CC1)N/N=C/C=C/c1ccccc1[N+](=O)[O-],"inconclusive [inhibitor, partial curve]"
22,Cc1ccc(C)c(NC(=O)CN(C)C(=O)c2ccc(-c3ccc(Cl)cc3)o2)c1,"inconclusive [inhibitor, single point]"

row,Structure (SMILES),Potency
1,O=c1ccc2cc(S(=O)(=O)Nc3ccc(F)cc3)ccc2o1,"inconclusive [inhibitor, single point]"
2,CSc1nc(C(=O)N2CCCC(N3CCN(c4ccccc4C)CC3)C2)cs1 (centres undefined),"inconclusive [inhibitor, single point]"
3,O=C(NNc1nc(-c2ccc(Br)cc2)cs1)c1ccco1,"inconclusive [inhibitor, single point]"
4,CCOc1cc(C2c3c(n[nH]c3C)C(=O)N2c2ccc(C)cc2)ccc1O (centres undefined),"inconclusive [inhibitor, partial curve]"
5,c1ccc(-c2cc(N3CCCCC3)c3ccccc3n2)cc1,"inconclusive [inhibitor, partial curve]"
6,Clc1ccc(SCCCCn2ccnc2)cc1,"inconclusive [inhibitor, single point]"
7,CCNNC(=O)C(O)(Cc1ccccc1)Cc1ccccc1,inactive
8,Cc1cccc(C(=O)N/N=C2\CS(=O)(=O)N(C)c3ccsc32)c1,"inconclusive [inhibitor, partial curve]"
9,Cn1c(=O)c2c(nc(CN3CCN(Cc4ccccc4)CC3)n2CCN2CCOCC2)n(C)c1=O,inactive
10,COc1ccc(OC)c(Nc2nc(N(C)c3ccccc3)nc(N)c2[N+](=O)[O-])c1,active: 5.01 µM
11,C=CCN1C(=O)/C(=C\c2ccc(Oc3nc(N4CCOCC4)nc(N4CCOCC4)n3)c(OC)c2)SC1=S,"inconclusive [inhibitor, partial curve]"
12,CCOC(=O)C1=C(CN2CCN(c3ccc(F)cc3)CC2)NC(=O)NC1c1cccs1 (centres undefined),"inconclusive [inhibitor, single point]"
13,O=C(CCNC(=O)C1CCN(S(=O)(=O)c2ccc(F)cc2)CC1)NCCc1cccc(F)c1,"inconclusive [inhibitor, partial curve]"
14,Cc1ccc(NS(=O)(=O)c2ccc(Cl)c(C(=O)Nc3cccc(C(=O)O)c3)c2)cc1,inactive
15,COc1ccccc1/C=C/C(=O)OCC(=O)c1cc(C)n(C)c1C,"inconclusive [inhibitor, single point]"
16,CC(OC(=O)Cn1ccccc1=O)C(=O)Nc1cc(Cl)cc(Cl)c1 (centres undefined),inactive
17,CCCn1c(N)c(N(CCOC)C(=O)CSCC(=O)Nc2cccc(C)c2)c(=O)[nH]c1=O,inactive
18,COc1ccc(C(=O)Nc2ccc(C(=O)Nc3cccnc3)cc2)cc1,inactive
19,CCN1CCN(Cc2ccc(NC(=O)c3cc(NC(=O)c4ccno4)cc(OC)c3)cc2C(F)(F)F)CC1,"inconclusive [inhibitor, single point]"
20,CCN(CCCNC(=O)CC(C(=O)N1CCc2ccccc21)n1ccnc1)c1ccccc1 (centres undefined),"inconclusive [inhibitor, single point]"
21,O=[N+]([O-])c1ccc(-n2nncc2-c2ccc(Cl)cc2)cc1,"inconclusive [inhibitor, partial curve, poor fit]"
22,O=C(NNC(=O)c1ccccc1F)c1ccc(Cl)c(S(=O)(=O)N2CCOCC2)c1,inactive
